PubChem BioAssay AID1460 (National Center for Advancing Translational Sciences (NCATS), 2008)
Among all 270,000 compounds or so, about 5,800 (2.1%) were called active. The shares of active, inactive and inconclusive entries below differ from those in the screen. Calls come from the whole dose curve; as a rule, active = well fitted inhibition curve with a large enough effect; inconclusive = small, poorly fitted or top-dose-only effect; inactive = flat fitted curve, though single readings scatter. A potency beside an inconclusive call is a rough fit, not a confirmed value.

Molecular target: Microtubule-associated protein tau (Homo sapiens) (UniProt P10636)
Chain of UniProt P10636 (P10636 whole entry, looked up): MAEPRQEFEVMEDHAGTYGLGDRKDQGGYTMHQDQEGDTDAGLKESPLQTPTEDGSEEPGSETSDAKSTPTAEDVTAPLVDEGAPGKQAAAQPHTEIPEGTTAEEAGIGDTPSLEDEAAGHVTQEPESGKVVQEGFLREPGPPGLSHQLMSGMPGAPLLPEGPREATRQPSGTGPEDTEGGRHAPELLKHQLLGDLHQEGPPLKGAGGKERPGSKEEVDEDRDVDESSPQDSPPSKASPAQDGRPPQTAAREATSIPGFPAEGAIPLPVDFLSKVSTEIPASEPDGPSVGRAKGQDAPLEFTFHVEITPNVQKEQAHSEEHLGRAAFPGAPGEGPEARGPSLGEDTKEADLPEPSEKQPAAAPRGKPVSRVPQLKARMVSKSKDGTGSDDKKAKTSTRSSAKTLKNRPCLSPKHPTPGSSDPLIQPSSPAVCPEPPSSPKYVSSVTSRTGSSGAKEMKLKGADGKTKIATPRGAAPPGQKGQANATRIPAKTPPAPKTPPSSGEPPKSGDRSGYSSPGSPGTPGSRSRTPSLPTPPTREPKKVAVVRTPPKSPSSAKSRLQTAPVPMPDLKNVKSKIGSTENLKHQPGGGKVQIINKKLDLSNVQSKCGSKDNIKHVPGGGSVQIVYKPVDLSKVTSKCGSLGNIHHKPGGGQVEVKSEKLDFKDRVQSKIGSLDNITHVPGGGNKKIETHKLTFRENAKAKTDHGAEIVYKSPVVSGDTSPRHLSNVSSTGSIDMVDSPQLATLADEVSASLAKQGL
Test: qHTS for Inhibitors of Tau Fibril Formation, Thioflavin T Binding; note: nearly all actives have a fitted effect of over 55% in size
Conditions: recombinant tau K18 P301L (four-repeat tau fragment), heparin-induced fibrillization, ThT fluorescence; series mostly up to 57.4 µM
How it was run: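 Recombinant human tau K18 fragment […] carrying P301L, 15 uM unlabeled plus 0.24 uM Alexa 594-labeled, was fibrillized with 20 uM heparin in 100 mM sodium acetate pH 7 for 6 hr at 37 C; 30 uM ThT fluorescence read after 1 hr.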
Potency is the fitted concentration of half-maximal effect; tags give direction and shape of the fitted curve.

SMILES	Potency
Cc1ccc(Nc2nnns2)cc1	inactive
CCN1C(C)=C(C)S/C1=C1\SC(=S)N(N)C1=O	inconclusive: 20 µM [inhibitor, single point]
CCC1=NN(C(=O)c2ccc(Br)cc2)C(O)(c2ccc(C)cc2)C1 (stereo not given)	inconclusive: 25.1 µM [inhibitor, partial curve]
CCOC(=O)c1cnc(SCc2ccc(C)cc2)nc1N	inconclusive: 17.8 µM [inhibitor, partial curve]
COCCNC(=S)N(CCc1c(C)[nH]c2ccc(C)cc12)Cc1ccco1	inconclusive: 28.2 µM [inhibitor, single point]
CCOC(=O)COc1cc(Br)c(C2NC(=O)NC(C)=C2C(C)=O)cc1OCC (stereo not given)	inactive
CC1=C(C(=O)OCC(C)C)C2(O)C(=O)c3ccccc3C2(O)N1 (stereo not given)	active: 7.94 µM
Brc1ccc(-c2nc(N/N=C/c3cccnc3)c3ccccc3n2)cc1	inactive
Cc1sc2ccccc2[n+]1CC(=O)O	active: 28.2 µM
O=C(CN1CCC(n2nnc3cc(C(F)(F)F)ccc32)CC1)Nc1ccc2c(c1)CCC2	inconclusive: 5.01 µM [inhibitor, partial curve]
Cc1ccc(S(=O)(=O)NC(=O)NN2CCCCCC2)cc1	inconclusive: 20 µM [inhibitor, single point]
COc1cccc(-c2csc(-c3c(N)c(C(=O)c4ccc5c(c4)OCO5)n4ccccc34)n2)c1	inconclusive: 1.41 µM [inhibitor, full curve]
CCOc1ccc(C2C(C(=O)Nc3ccccc3)=C(C)Nc3nc(-c4ccccc4)nn32)cc1OC (stereo not given)	inconclusive: 25.1 µM [inhibitor, single point]
Cc1ccc(NC(=O)Cn2c(=O)c3ccc(Cl)cc3n3nncc23)cc1	inactive
CN(C)c1cccc2c1c(NC(=O)c1ccc(F)cc1)nn2C	inactive
CC(C)(C)c1ccc(S(=O)(=O)Nc2cccc(C3OCCCO3)c2)cc1	inactive
O=C(CSc1nnc(-c2ccccc2Cl)o1)Oc1ccc(Br)cc1	inconclusive: 28.2 µM [inhibitor, single point]
CN(C)c1ccc(/C=C/c2cc[n+]([O-])cc2)cc1	inconclusive: 22.4 µM [activator, single point]
COc1cc(OC)cc(C(=O)O/N=C(\N)c2ccncc2)c1	inconclusive: 31.6 µM [inhibitor, single point]
Cc1ccc(Nc2nc(-c3ccccc3)nc3ccccc23)cc1	inconclusive: 25.1 µM [inhibitor, single point]
CNc1nc(-c2ccc3c(c2)CCN3C(=O)c2ccccc2F)c(C)s1	inconclusive: 17.8 µM [inhibitor, single point]
COc1ccccc1/C=C/CN1CCCC(CO)(Cc2cccc(Cl)c2)C1 (stereo not given)	inactive
CC(C)/C=N/NC(=O)c1cc(Br)ccc1O	inconclusive: 6.31 µM [inhibitor, partial curve]

SMILES	Potency
Cc1ccc(C(=O)N2CCC3(CC2)Oc2ccc(Cl)cc2C(=O)C32CC(c3ccc(Cl)cc3)=NO2)s1 (stereo not given)	inconclusive: 39.8 µM [inhibitor, single point]
CN1/C(=C\C(=O)Nc2ccc(F)cc2)C(C)(C)c2ccccc21	inconclusive: 11.2 µM [inhibitor, partial curve]
O=C(NN1C(=O)c2ccccc2NC1c1ccc([N+](=O)[O-])o1)c1ccccc1 (stereo not given)	inconclusive: 7.94 µM [inhibitor, full curve]
CN(c1ccc(C(=O)NCCSCc2c(F)cccc2Cl)cc1)S(C)(=O)=O	inactive
CC1=C(C(N)=O)C(c2ccc3c(c2)OCO3)n2nc(-c3cccc(C)c3)nc2N1 (stereo not given)	inconclusive: 31.6 µM [inhibitor, partial curve]
CCCOc1ccc(NC(=O)CC2C(=O)N(CC)C(=S)N2CCCN2CCN(Cc3ccccc3)CC2)cc1 (stereo not given)	inconclusive: 14.1 µM [inhibitor, partial curve]
O=C(/C=C/c1cccs1)Nc1cccc(NC(=O)/C=C/c2cccs2)n1	inconclusive: 3.98 µM [inhibitor, partial curve, poor fit]
CCOC(=O)c1sc(NC(=O)CNCc2ccccn2)c(C(=O)OCC)c1C	inconclusive: 25.1 µM [inhibitor, partial curve, poor fit]
O=C(NC1CCCC1)c1cccnc1N1CCCCCC1	inactive
C/C(=N\NC(=O)Cc1cccn1C)c1ccco1	inconclusive: 39.8 µM [inhibitor, single point]
COc1ccc(CCN2C(=S)NC3CC2(C)Oc2ccc([N+](=O)[O-])cc23)cc1OC (stereo not given)	inconclusive: 22.4 µM [inhibitor, partial curve]
COc1ccc(N/C=C/C(=O)C(F)(F)F)cc1	inactive
CCOc1cc(NC(=O)c2ccco2)c(OCC)cc1NC(=O)Cc1cccc(OC)c1	inconclusive: 17.8 µM [inhibitor, partial curve]
CCn1c(N)c(C(=O)NCc2cccnc2)sc1=S	inactive
CC(=O)c1ccc(S(=O)(=O)Nc2ccc(-c3cn4c(C)csc4n3)cc2)cc1	inconclusive: 11.2 µM [inhibitor, partial curve]
COc1ccc(C)cc1NC(c1nnc(-c2ccccc2)o1)c1ccc(F)cc1Cl (stereo not given)	inactive
CCOc1ccc(C2Nc3cccc4cccc(c34)N2)cc1OC	active: 3.55 µM
S=c1[nH]nc(Cc2cccc3ccccc23)n1-c1ccccc1	inconclusive: 22.4 µM [inhibitor, single point]
Cc1ccc(/C=C/C(=O)NCC2COc3ccccc3O2)o1 (stereo not given)	inconclusive: 25.1 µM [inhibitor, partial curve]
Cc1ccc(-c2c3c(=O)n(C)c(=O)n(C)c3cn2Cc2ccccc2)cc1	inconclusive: 35.5 µM [inhibitor, single point]
CN(C=[N+](C)C)c1cccc2c1C(=O)c1ccccc1C2=O	inconclusive: 15.8 µM [inhibitor, partial curve]
CCc1ccc(NC(=O)c2sc(-n3nc(C)c(CCC(C)C)c3C)nc2C)cc1	inconclusive: 7.08 µM [inhibitor, partial curve]
